Counter-ions that a name gives are not always drawn. ± gives the standard deviation of the averaged measurements. In all, about 2,600 compounds were measured (“MBP+ mature oligodendrocyte number relative to DMSO vehicle control”: median about -0.34, highest 2% from about 13 on). The list shows a part of the results.
These molecules were tested on jimpy (Plp1 jimpy) mouse iPSC-derived oligodendrocyte progenitor cells (assay: MBP+ mature oligodendrocyte number relative to DMSO vehicle control (SDs above negative control mean); higher = more surviving jimpy oligodendrocytes (rescue)). Conditions: 10 µM; 3 days.
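Note: 10 µM single dose with 3-day oligodendrocyte differentiation.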

Compound	MBP+ mature oligodendrocyte number
CCCNC(=O)Nc1ccc(Oc2ncnc3cc(OC)c(OC)cc23)cc1Cl	-2.99
O=C(O)c1cc(=O)c2c(Cl)cc(Cl)cc2[nH]1 [5,7-Dichlorokynurenic acid]	-0.544
O=S(=O)(O)Oc1ccc(C(c2ccc(OS(=O)(=O)O)cc2)c2ccccn2)cc1 [Sodium Picosulfate]	1.84
CCN(CC)CCOc1ccc(Nc2ncc3cc(-c4c(Cl)cccc4Cl)c(=O)n(C)c3n2)cc1	< -3.85
CCn1c(-c2nonc2N)nc2c(C#CC(C)(C)O)ncc(OC[C@H]3CCCNC3)c21	< -6.7
NC(=O)CC[C@H](N)C(=O)O [L-Glutamine]	-1.01
Cc1cc2c(s1)Nc1ccccc1N=C2N1CCN(C)CC1 [Olanzapine]	-1.86 ± 0.9
CN1C(=O)C(Cc2c[nH]c3ccccc23)NC1=S (stereo not given) [Necrostatin-1]	1.71 ± 1.2
Cn1cc(/C=C2\C(=O)Nc3cccnc32)c2ccccc21	-3.63
Cc1ccc(NC(=O)C2(c3ccc4c(c3)OC(F)(F)O4)CC2)nc1-c1cccc(C(=O)O)c1 [VX-809 (Lumacaftor)]	1.69
CC(C)OC(=O)C(C)(C)Oc1ccc(C(=O)c2ccc(Cl)cc2)cc1 [Fenofibrate]	2.47 ± 0.94
COc1ccc(-c2coc3cc(O)ccc3c2=O)cc1 [Formononetin]	5.88
CN1CCN(S(=O)(=O)c2ccc(-c3cnc(N)c(C(=O)Nc4cccnc4)n3)cc2)CC1	< -6.35
Nc1ccc2ncnc(NCCc3ccc(Oc4ccccc4)cc3)c2c1	< -6.35
Oc1c(Br)cc(Br)c2cccnc12 [Broxyquinoline]	3.03
COc1ccc(CC(C)NCC(O)c2ccc(O)c(NC=O)c2)cc1 (stereo not given) [Formoterol Hemifumarate]	1.69
COc1ccc(CC(C)NCC(O)c2ccc(O)c(NC=O)c2)cc1 (stereo not given) [Formoterol]	-0.439
O=C(OCCN1CCOCC1)C1(c2ccccc2)CCCCC1	-0.363
Cc1ccc2c(c1)C(=O)C1(O)CCN(c3ccccc3)C1=N2 (single isomer, unassigned; (-)) [(-)-Blebbistatin]	< -6.35
CC(C)C[C@H](NC(=O)[C@H](Cc1ccccc1)NC(=O)c1cnccn1)B(O)O [Bortezomib (PS-341)]	< -6.7
CS(=O)(=O)c1ccc(C(=O)Nc2ccc(Cl)c(-c3ccccn3)c2)c(Cl)c1 [Vismodegib (GDC-0449)]	2.47
CC1(C)CCC(c2ccc(Cl)cc2)=C(CN2CCN(c3ccc(C(=O)NS(=O)(=O)c4ccc(N[C@H](CCN5CCOCC5)CSc5ccccc5)c(S(=O)(=O)C(F)(F)F)c4)cc3)CC2)C1 [ABT-263 (Navitoclax)]	-6.61
O=C(COc1ccc(C(=O)c2ccccc2)cc1)NC1CCN(Cc2ccccc2)CC1 [AdipoRon]	5.37
CCOC(=O)N1CCC(=C2c3ccc(Cl)cc3CCc3cccnc32)CC1 [Loratadine]	1.87 ± 3.3
O=C(NOCC1CC1)c1ccc(F)c(F)c1Nc1ccc(I)cc1Cl	-4.87
Nc1nc(F)nc2c1ncn2[C@@H]1O[C@H](COP(=O)(O)O)[C@@H](O)[C@@H]1O [Fludarabine Phosphate]	-3.21
O=C1/C(=C/c2cccs2)CC/C1=C\c1cccs1	0.0387

Compound	MBP+ mature oligodendrocyte number
CC(C)(N)c1ncc(-c2ccc(OC(F)(F)F)cc2)[nH]1	-1.43
COCCCC/C(=N\OCCN)c1ccc(C(F)(F)F)cc1 [Fluvoxamine maleate]	-1.46 ± 3.2
C[C@]12CCC(=O)C=C1CC[C@@H]1[C@@H]2C(=O)C[C@@]2(C)[C@H]1CC[C@]2(O)C(=O)CO [Cortisone]	-0.983
COC(=O)[C@H](c1ccccc1Cl)N1CCc2sccc2C1 [Clopidogrel]	1.42
CCN(CC)CCNC(=O)c1ccc(NS(C)(=O)=O)cc1 [Sematilide monohydrochloride monohydrate]	-0.439
C[C@H](N[C@@H](CCc1ccccc1)C(=O)O)C(=O)N1CCC[C@H]1C(=O)O [Enalaprilat dihydrate]	0.574
C[C@H](N[C@@H](CCc1ccccc1)C(=O)O)C(=O)N1CCC[C@H]1C(=O)O [Enalaprilat Dihydrate]	-0.467
NC(=O)N1CCC(CC(=O)N2CCC([C@H]3c4ncc(Br)cc4CCc4cc(Cl)cc(Br)c43)CC2)CC1 [Lonafarnib]	-5.61
O=C(O)C1CCCNC1 (racemic) [(±)-Nipecotic acid]	-1.18
O=C(Nc1cc(C(F)(F)F)cc(C(F)(F)F)c1)c1cc(Cl)ccc1O	-5.85
CN(C)[C@@H]1C(O)=C(C(N)=O)C(=O)[C@@]2(O)C(O)=C3C(=O)c4c(O)cccc4[C@@](C)(O)[C@H]3C[C@@H]12 [Tetracycline HCl]	0.339
CNC[C@@H](O)c1ccc(O)c(O)c1 [L-Adrenaline]	1.12
Cc1ccc(N(CC2=NCCN2)c2cccc(O)c2)cc1 [Phentolamine mesylate]	1.93
Cc1ccc(N(CC2=NCCN2)c2cccc(O)c2)cc1 [Phentolamine Mesylate]	1.42
CC(C)(C)c1ccc(/C=C/C(=O)Nc2ccc3c(c2)OCCO3)cc1	1.18
CC[n+]1c(/C=C/C=C2/N(C)c3ccccc3C2(C)C)sc2ccccc21	< -4.47
CCc1ccc(CCOc2ccc(CC3SC(=O)NC3=O)cc2)nc1 (stereo not given) [Pioglitazone]	-1.23
CCc1ccc(CCOc2ccc(CC3SC(=O)NC3=O)cc2)nc1 (stereo not given) [Pioglitazone HCl]	0.0731
Cc1c(Cl)cccc1Nc1ccccc1C(=O)O [Tolfenamic Acid]	1.69
CCCSc1ccc2[nH]c(NC(=O)OC)nc2c1 [Albendazole]	1.06
COc1cc(F)c(C(C)C)cc1-c1ccc(C(F)(F)F)cc1CN1C(=O)O[C@H](c2cc(C(F)(F)F)cc(C(F)(F)F)c2)[C@@H]1C [Anacetrapib (MK-0859)]	3.52
CO[C@H]1/C=C/O[C@@]2(C)Oc3c(C)c(O)c4c(O)c(c(/C=N/N5CCN(C)CC5)c(O)c4c3C2=O)NC(=O)/C(C)=C\C=C\[C@H](C)[C@H](O)[C@@H](C)[C@@H](O)[C@@H](C)[C@H](OC(C)=O)[C@@H]1C [Rifampin]	-1.19
CC(C)NCC(O)c1ccc(O)c(O)c1 (racemic) [Isoprenaline HCl]	-0.276
CC(C)NCC(O)c1ccc(O)c(O)c1 (racemic) [(±)-Isoproterenol hydrochloride]	0.225
CC(C(=O)O)c1ccc(CC2CCCC2=O)cc1 (stereo not given) [loxoprofen]	0.0686
CC[C@H]1OC(=O)[C@H](C)[C@@H](O[C@H]2C[C@@](C)(OC)[C@@H](O)[C@H](C)O2)[C@H](C)[C@@H](O[C@@H]2O[C@H](C)C[C@H](N(C)C)[C@H]2O)[C@](C)(O)C[C@@H](C)C(=O)[C@H](C)[C@@H](O)[C@]1(C)O [Erythromycin]	1.78
CC1=C(/C=C/C(C)=C/C=C/C(C)=C/C=C/C=C(C)/C=C/C=C(C)/C=C/C2=C(C)CCCC2(C)C)C(C)(C)CCC1 [Beta Carotene]	-1.01

Compound	MBP+ mature oligodendrocyte number
NCCCCC(=O)O [5-Aminovaleric acid hydrochloride]	-1.14
c1ccc(CC2=NCCN2)cc1 [Tolazoline HCl]	-0.523
CC(C)(Oc1ccc(CCNC(=O)c2ccc(Cl)cc2)cc1)C(=O)O [Bezafibrate]	0.633 ± 1.6
OCCN1CCN(CCCN2c3ccccc3Sc3ccc(C(F)(F)F)cc32)CC1 [Fluphenazine dihydrochloride]	-4.41
Clc1ccc2c(c1)C(N1CCNCC1)=Nc1ccccc1O2 [Amoxapine]	-3.06
O=C(O)CCCc1c[nH]c2ccccc12 [3-Indolebutyric acid (IBA)]	0.227
O=C(c1cc(Cc2n[nH]c(=O)c3ccccc23)ccc1F)N1CCN(C(=O)C2CC2)CC1	-2.07
CC(C)[C@@H](C)/C=C/[C@@H](C)[C@H]1CC[C@H]2C3=CC=C4C[C@@H](O)CC[C@]4(C)[C@H]3CC[C@]12C [Ergosterol]	0.619
O=C1c2ccccc2C(=O)C1c1ccccc1 [Phenindione]	0.253
O=C(O)CCc1nc(-c2ccccc2)c(-c2ccccc2)o1 [Oxaprozin]	-0.0205 ± 1.1
C=CC(N)CCC(=O)O (racemic) [(±)-gamma-Vinyl GABA]	0.324
OC[C@@H](O)[C@@H](O)[C@H](O)[C@H](O)CO [D-Mannitol]	1.79
CC(=O)OCC(=O)NCCCOc1cccc(CN2CCCCC2)c1 [Roxatidine Acetate HCl]	0.793
CCn1cc(C(=O)O)c(=O)c2cc(F)c(N3CCNCC3)nc21 [Enoxacin]	0.793
C[C@H](NCc1ccc(OCc2cccc(F)c2)cc1)C(N)=O [Safinamide Mesylate]	-2.16
CC1(C)CCC=[N+]1[O-] [5,5-Dimethyl-1-pyrroline-N-oxide]	0.136
CC1(C)CCC(NC(=O)[C@@H](N)CCC(=O)O)CC1	-0.323
O=C(O)C1CCNCC1 [Isonipecotic acid]	-0.951
OC[C@H]1OC(O)[C@H](O)[C@@H](O)[C@@H]1O (stereo not given in full) [Dextrose]	5.77
CCCc1ncc(C[n+]2ccccc2C)c(N)n1 [Amprolium HCl]	1.76
O=C1NC(=O)/C(=C/c2ccc3nccc(-c4ccncc4)c3c2)S1	-6.26
Oc1ccc(C2CNCCc3c2cc(O)c(O)c3Cl)cc1 (stereo not given) [Fenoldopam bromide]	-0.648
CC(C(=O)O)c1cccc(Oc2ccccc2)c1 (stereo not given) [Fenoprofen Calcium]	2.68
O=C(COc1cccc2c(=O)[nH]ccc12)c1ccccc1	2.01
CNCCNS(=O)(=O)c1cccc2cnccc12 [H-8 dihydrochloride]	-1.23
O=C(O)Cn1c(C(=O)Nc2nc(-c3ccccc3Cl)cs2)cc2ccccc21	0.189
